According to patent US20220023439A1, “ACTIVATABLE ANTI-CD166 ANTIBODIES AND METHODS OF USE THEREOF” (priority 2018, published 2022):

Test system: H292 xenografts
Experiment: Quantification of activated and intact activatable antibody in tumor and plasma by the Wes system
Assay type: in vivo
Details: nude mice with H292 xenografts, 5 mg/kg, one day after treatment

B1: 7614.6-3001-HuCD166: anti-CD166 activatable antibody comprising the heavy chain sequence of SEQ ID NO: 480 and the light chain sequence of SEQ ID NO: 246 (antibody)
heavy: QITLKESGPTLVKPTQTLTLTCTFSGFSLSTYGMGVGWIRQPPGKALEWLANIWWSEDKHYSPSLKSRLTITKDTSKNQVVLTITNVDPVDTATYYCVQIDYGNDYAFTYWGQGTLVTVSS[skipping human IgG1 constant region]
light: QGQSGQGLCHPAVLSAWESCSSGGGSSGGSAVGLLAPPGGLSGRSDNHGGSDIVMTQSPLSLPVTPGEPASISCRSSKSLLHSNGITYLYWYLQKPGQSPQLLIYQMSNLASGVPDRFSGSGSGTDFTLKISRVEAEDVGVYYCAQNLELPYTFGQGTKLEIKRTVAAPSVFIFPPSDEQLKSGTASVVCLLNNFYPREAKVQWKVDNALQSGNSQESVTEQDSKDSTYSLSSTLTLSKADYEKHKVYACEVTHQGLSSPVTKSFNRGEC
Activation of the activatable antibody in tumor as compared to plasma: preferential activation in tumor
